# From the supplement of paper PMC12217912
# This is one part of the list. The full chains were built here from the parent and the listed change. Values near 0.05 are background.
# B1: TEV protease; numbered along this chain (parent)
# chain: MGESLFKGPRDYNPISSSICHLTNESDGHTTSLYGIGFGPFIITNKHLFRRNNGTLVVQSLHGVFKVKDTTTLQQHLVDGRDMIIIRMPKDFPPFPQKLKFREPQREERICLVTTNFQTKSMSSMVSDTSCTFPSGDGIFWKHWIQTKDGQCGSPLVSTRDGFIVGIHSASNFTNTNNYFTSVPKNFMELLTNQEAQQWVSGWRLNADSVLWGGHKVFMVKPEEPFQPVKEATQL
# Variants of: B1
# Assay: raw area under fraction-flipped curve 0-4 h after induction (AUC4h, not background-subtracted), DNA-recorder readout of cleavage of the substrate (dimensionless); higher = more cleavage of the substrate by the protease variant
# Details: temperature: 34 °C; time window: 0-4 h after rhamnose induction
# Procedure: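 In vivo DNA recorder in E. coli TOP10(DE3) ΔrhaA at 34 °C. Each TEVp single-site mutant (parent TEVp 0) is paired with a single-site variant of the 7-mer TEVs (canonical ENLYFQ|S). The substrate sits between flexible linkers in a Bxb1-sfGFP-TEVs-SsrA fusion, so cleavage stabilises Bxb1 and speeds flipping of a recombination array, read by NGS. The value is the raw area under the fraction-flipped curve over 0-4 h after rhamnose induction (AUC4h), with ≥20 reads per time point. It is not background-subtracted; inactive controls average about 0.047.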
# 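Note: Bxb1 expression induced with 0.2% (w/v) L-rhamnose at OD600 near 0.5, cultures sampled hourly, flipped fraction per protease–substrate barcode pair counted by paired-end Illumina sequencing.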
Variant,area with substrate ENLYFAS,area with substrate ENLYFCS,area with substrate ENLYFDS,area with substrate ENLYFES,area with substrate ENLYFGS,area with substrate ENLYFIS,area with substrate ENLYFKS,area with substrate ENLYFLS,area with substrate ENLYFMS,area with substrate ENLYFPS
F218I,0.0544,0.0506,0.0578,0.0624,0.0551,0.0533,0.0551,0.0663,0.0676,0.0569
F218V,0.0599,,0.0622,,,0.0755,0.0895,0.0645,0.0402,0.0622
R81V,,0.0681,,,,0.0553,,,,
L211N,0.0765,,,0.0889,,0.055,,,0.0654,0.0456
P222T,0.0589,0.0569,0.0616,,0.0564,0.052,0.0594,0.0584,0.0624,0.061
P89C,,0.0324,,0.0594,0.0635,,,,,0.0611
W203P,0.0583,,,,,,,,,0.0436
W203S,0.0454,0.0499,,0.0652,,0.0555,0.0682,,0.0657,0.0515
D11T,,0.0023,0.05,0.0564,0.0487,,,,,0.0433
Y12R,,0.0607,0.0621,0.0463,0.067,0.0382,0.0545,0.0669,0.0681,
V78N,,0.0415,0.0489,,,0.0527,,0.0599,0.0598,0.0609
K7S,,0.0511,,0.0656,,,,,,
P93L,,0.0517,,,,,,,0.0646,
E25S,,0.0511,0.0809,0.0618,,0.0634,0.0626,,0.0703,0.0632
H215I,0.0634,,,,,,,,,
H215L,0.0634,,,0.0643,0.0634,0.0709,0.0539,0.0696,0.0669,0.0613
F38V,,0.053,0.0519,,,,0.04,0.0412,0.0592,
S209W,0.0676,,,0.0784,,0.0643,,,0.0772,0.0811

Variant,area with substrate ENLYFAS,area with substrate ENLYFCS,area with substrate ENLYFDS,area with substrate ENLYFES,area with substrate ENLYFGS,area with substrate ENLYFIS,area with substrate ENLYFKS,area with substrate ENLYFLS,area with substrate ENLYFMS,area with substrate ENLYFPS
S209H,0.0517,,,0.0598,0.0589,0.0653,,,0.0597,0.0494
S209G,0.0628,0.061,,,,0.0581,0.0766,,,0.0545
S209A,0.113,,0.063,0.0684,,0.0615,,,,
S209E,0.081,0.0596,0.0551,0.0911,,,,,0.0654,0.0596
S4A,,0.0684,0.0613,,0.0632,0.0556,0.0707,,0.0622,
E3D,,0.0452,,0.112,,,0.0546,,0.0645,0.0372
E3A,,0.0754,,0.0627,,0.0516,,,,0.0611
N193Y,0.0663,0.0545,,0.0679,,0.0596,,0.0617,0.0606,0.0825
Q198S,0.0341,,,,0.0543,0.0552,0.0433,0.0746,0.051,0.056
E231I,0.0522,0.0584,,0.0714,0.0468,0.0568,0.0677,0.0677,0.0613,0.0634
E195T,0.0521,,0.0647,0.0527,,0.0438,,,,0.0717
E223D,0.0619,,,0.0756,,0.0486,,,,
Q74I,,0.05,0.068,0.0748,,,,0.058,,
G213C,0.05,,,0.0535,,0.0561,0.0647,,,0.0558
G213H,0.0617,0.0554,,0.0561,,,0.0561,,0.0587,
A207R,0.0535,0.0542,,0.0596,,0.0636,,,,0.0441
D91M,,0.0642,,,,0.0612,0.0572,,,
L191Q,0.0522,,0.053,0.0623,,0.054,,,0.0495,

# Same assay, conditions: temperature: 34 °C; time window: 0-4 h after rhamnose induction
Variant,area with substrate ENLYFSS,area with substrate ENLYFWS,area with substrate ENLYFHS,area with substrate ENLYFNS,area with substrate ENLYFRS,area with substrate ENLYFYS,area with substrate ENLYFFS,area with substrate ENLYFTS,area with substrate ENLYFVS
F218I,0.0702,0.0538,,,,,,,
F218V,,,0.0452,0.0594,0.0653,0.0517,,,
R81V,,0.0575,,,,0.0691,0.0701,0.0555,
L211N,,,,,0.0667,0.0951,0.0664,,
P222T,0.0579,,0.0563,0.0677,0.0549,0.0691,,0.0683,
W203P,,,,,0.0544,,0.0559,0.0688,
W203S,,,0.0752,,0.0063,0.0607,0.0649,0.0549,
D11T,,0.0548,,,0.0625,0.0667,,0.054,0.0376
Y12R,,0.0528,,,0.0534,0.067,0.0718,0.0522,0.0056
V78N,0.0804,0.0514,,0.0565,0.0688,0.0463,0.0692,0.0512,
K7S,,,,,,,,,0.0467
P93L,,,0.0607,,0.0547,0.0484,,,
E25S,0.0564,,0.0514,0.0747,0.0644,,0.0554,0.0628,0.0531
H215L,0.0519,0.0894,,,0.0421,0.0489,0.0532,0.0651,0.072
F38V,,,,0.0487,0.0566,0.0541,,0.0575,
S209W,0.0624,,,,,,,0.0605,0.0553
S209H,,,0.065,0.0664,0.0762,,0.0709,0.0741,

Variant,area with substrate ENLYFSS,area with substrate ENLYFWS,area with substrate ENLYFHS,area with substrate ENLYFNS,area with substrate ENLYFRS,area with substrate ENLYFYS,area with substrate ENLYFFS,area with substrate ENLYFTS,area with substrate ENLYFVS
S209G,,,,0.0747,0.0843,,0.0694,0.0518,0.0615
S209A,,,0.0647,,,,,,
S209E,,,,0.0685,,,0.0681,0.0592,
S4A,,0.0684,0.067,,0.0474,0.0578,0.066,0.0547,0.0575
E3D,,,0.0792,0.0658,,0.0486,,,0.0583
E3A,0.0614,,0.07,0.0689,,0.0572,0.0676,0.0548,0.0363
N193Y,,,0.0682,,0.0562,,0.0774,,
Q198S,,0.0521,0.084,0.0518,0.0598,0.0603,0.0609,0.0665,0.0523
E231I,0.0577,,,0.0257,0.059,0.0536,0.0727,0.0487,0.0654
E195T,0.0493,,,,,,0.0639,0.0525,
Q74I,,0.0576,,0.0511,0.0406,,0.0814,,0.067
G213C,0.0529,,0.0521,,0.064,,0.0638,,
G213H,,,,,,0.0593,,,
A207R,,,0.0624,,0.0467,,0.0603,0.0533,0.0118
D91M,,0.056,,,0.0559,,,,
L191Q,0.0555,0.05,,,0.0397,0.0527,,0.053,0.0611
